{"source": "the supplement of paper PMC10126150", "note": "Sequences with one replicate were seen in a single cluster, so their values are uncertain.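 Also: ATP exposure 15 min at 22 °C before imaging.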"}
{"test_system": "ATP", "test": "switch fluorescence ratio, 500 uM ATP over buffer (Cy3 cluster intensity, sum of 5 cycles each) (fold (ratio)); higher = stronger signal-on switching upon ATP binding; sequences stand for … in TCGTCGGCAGCGTCAGATGTGTATAAGAGACAGTTTTTTTTTTTTTTTTTTTTTTTTT…TC", "details": "aptamer strand: ATP DNA aptamer (quencher-CACCTGGGGGAGTATTGCGGAGGAAGG + anchor), 100 nM annealed; ATP concentration: 500 uM; one replicate", "how_it_was_run": "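Cy3-labelled switching-strand clusters on a modified Illumina MiSeq flow-cell were annealed to 100 nM quencher-labelled ATP aptamer, imaged in selection buffer, then imaged after 15 min with 500 uM ATP at 22 °C. Five buffer/ATP cycles ran, with NaOH stripping and re-annealing between them. The fluorescence ratio is summed target-cycle over summed buffer-cycle Cy3 intensity per cluster, averaged per switch-domain sequence. Clusters outside 100-1000 RFU were excluded.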"}
{"sequence": "GAGCGGTCGG", "switch fluorescence ratio": 0.962}
{"sequence": "GAGCTATCCG", "switch fluorescence ratio": 1}
{"sequence": "GAGCTTCGAC", "switch fluorescence ratio": 1.14}
{"sequence": "GAGCTTTCTC", "switch fluorescence ratio": 1.06}
{"sequence": "GAGGAAAG", "switch fluorescence ratio": 1.04}
{"sequence": "GAGGAGAAGC", "switch fluorescence ratio": 0.978}
{"sequence": "GAGGAGCATT", "switch fluorescence ratio": 1.05}
{"sequence": "GAGGAGGTC", "switch fluorescence ratio": 0.957}
{"sequence": "GAGGCACG", "switch fluorescence ratio": 1.08}
{"sequence": "GAGGCAGTAT", "switch fluorescence ratio": 1.44}
{"sequence": "GAGGCATTCA", "switch fluorescence ratio": 1.03}
{"sequence": "GAGGCCCGAC", "switch fluorescence ratio": 0.937}
{"sequence": "GAGGCCTTGA", "switch fluorescence ratio": 1.02}
{"sequence": "GAGGCGGGGT", "switch fluorescence ratio": 1.02}
{"sequence": "GAGGCGGGTA", "switch fluorescence ratio": 0.959}
{"sequence": "GAGGCGTATC", "switch fluorescence ratio": 1.07}
{"sequence": "GAGGCTTAGA", "switch fluorescence ratio": 1.04}
{"sequence": "GAGGGACCA", "switch fluorescence ratio": 1.04}
{"sequence": "GAGGGAGACG", "switch fluorescence ratio": 1.02}
{"sequence": "GAGGGATCTG", "switch fluorescence ratio": 0.943}
{"sequence": "GAGGGCAGA", "switch fluorescence ratio": 1.03}
{"sequence": "GAGGGCTATG", "switch fluorescence ratio": 1.03}
{"sequence": "GAGGGGGTAC", "switch fluorescence ratio": 0.974}
{"sequence": "GAGGGGTTAT", "switch fluorescence ratio": 1.01}
{"sequence": "GAGGGTAGGG", "switch fluorescence ratio": 0.92}
{"sequence": "GAGGGTCCCA", "switch fluorescence ratio": 0.988}
{"sequence": "GAGGGTCGAT", "switch fluorescence ratio": 1.03}
{"sequence": "GAGGGTCGCA", "switch fluorescence ratio": 0.997}
{"sequence": "GAGGGTGTTG", "switch fluorescence ratio": 0.986}
{"sequence": "GAGGTAAACT", "switch fluorescence ratio": 0.978}
{"sequence": "GAGGTACATG", "switch fluorescence ratio": 1.01}
{"sequence": "GAGGTAGAAA", "switch fluorescence ratio": 1.02}
{"sequence": "GAGGTATGAC", "switch fluorescence ratio": 0.999}
{"sequence": "GAGGTCGGGA", "switch fluorescence ratio": 0.995}
{"sequence": "GAGGTCTAAA", "switch fluorescence ratio": 0.988}
{"sequence": "GAGGTCTGCA", "switch fluorescence ratio": 1.02}
{"sequence": "GAGGTGTCCT", "switch fluorescence ratio": 0.997}
{"sequence": "GAGGTGTGTC", "switch fluorescence ratio": 0.955}
{"sequence": "GAGGTTCAAT", "switch fluorescence ratio": 0.969}
{"sequence": "GAGGTTTTAA", "switch fluorescence ratio": 0.962}
{"sequence": "GAGTACCGTT", "switch fluorescence ratio": 0.975}
{"sequence": "GAGTACGTTC", "switch fluorescence ratio": 0.978}
{"sequence": "GAGTACGTTT", "switch fluorescence ratio": 1.02}
{"sequence": "GAGTACTAAG", "switch fluorescence ratio": 1.05}
{"sequence": "GAGTACTGTG", "switch fluorescence ratio": 0.951}
{"sequence": "GAGTAGAACC", "switch fluorescence ratio": 1.04}
{"sequence": "GAGTAGATGA", "switch fluorescence ratio": 0.965}
{"sequence": "GAGTAGCGGG", "switch fluorescence ratio": 0.981}
{"sequence": "GAGTAGGCCT", "switch fluorescence ratio": 0.943}
{"sequence": "GAGTAGGCTC", "switch fluorescence ratio": 0.963}
{"sequence": "GAGTAGTAGG", "switch fluorescence ratio": 0.954}
{"sequence": "GAGTAGTGTA", "switch fluorescence ratio": 0.974}
{"sequence": "GAGTATAGTG", "switch fluorescence ratio": 0.971}
{"sequence": "GAGTATATCT", "switch fluorescence ratio": 1.05}
{"sequence": "GAGTATGGAT", "switch fluorescence ratio": 1.02}
{"sequence": "GAGTATTACT", "switch fluorescence ratio": 1.05}
{"sequence": "GAGTATTGTT", "switch fluorescence ratio": 0.98}
{"sequence": "GAGTCAACGA", "switch fluorescence ratio": 1.04}
{"sequence": "GAGTCACAAA", "switch fluorescence ratio": 0.974}
{"sequence": "GAGTCATAA", "switch fluorescence ratio": 0.96}
{"sequence": "GAGTCCGTCG", "switch fluorescence ratio": 0.981}
{"sequence": "GAGTCCGTTA", "switch fluorescence ratio": 1.21}
{"sequence": "GAGTCGCAGT", "switch fluorescence ratio": 0.981}
{"sequence": "GAGTCGCGGC", "switch fluorescence ratio": 0.877}
{"sequence": "GAGTCGCTAG", "switch fluorescence ratio": 1.01}
{"sequence": "GAGTCGTGCT", "switch fluorescence ratio": 0.993}
{"sequence": "GAGTCTATGA", "switch fluorescence ratio": 1.01}
{"sequence": "GAGTGATGG", "switch fluorescence ratio": 1.05}
{"sequence": "GAGTGCCTCG", "switch fluorescence ratio": 0.957}
{"sequence": "GAGTGGGAAT", "switch fluorescence ratio": 1.01}
{"sequence": "GAGTGGGAGA", "switch fluorescence ratio": 0.969}
{"sequence": "GAGTGGTGGA", "switch fluorescence ratio": 0.998}
{"sequence": "GAGTGTGAGC", "switch fluorescence ratio": 1.01}
{"sequence": "GAGTTAAAAT", "switch fluorescence ratio": 1.04}
{"sequence": "GAGTTATAAA", "switch fluorescence ratio": 0.994}
{"sequence": "GAGTTCGAGA", "switch fluorescence ratio": 1.01}
{"sequence": "GAGTTCTCGA", "switch fluorescence ratio": 0.976}
{"sequence": "GAGTTGGGAC", "switch fluorescence ratio": 1.04}
{"sequence": "GAGTTTATTT", "switch fluorescence ratio": 1.01}
{"sequence": "GAGTTTTCAA", "switch fluorescence ratio": 1.03}
{"sequence": "GATAAAAACT", "switch fluorescence ratio": 2.5}
{"sequence": "GATAAAAGTA", "switch fluorescence ratio": 0.97}
{"sequence": "GATAAATTAA", "switch fluorescence ratio": 0.999}
{"sequence": "GATAAGGTGC", "switch fluorescence ratio": 1.24}
{"sequence": "GATAAGTCCT", "switch fluorescence ratio": 1.03}
{"sequence": "GATAAGTGTG", "switch fluorescence ratio": 0.975}
{"sequence": "GATAATGCCC", "switch fluorescence ratio": 1.04}
{"sequence": "GATACAGGCA", "switch fluorescence ratio": 1.01}
{"sequence": "GATACATCTG", "switch fluorescence ratio": 0.992}
{"sequence": "GATACCATGA", "switch fluorescence ratio": 1.01}
{"sequence": "GATACTACTC", "switch fluorescence ratio": 1.06}
{"sequence": "GATACTCTTC", "switch fluorescence ratio": 1.02}
{"sequence": "GATACTTGTG", "switch fluorescence ratio": 0.983}
{"sequence": "GATAGAGAGC", "switch fluorescence ratio": 1.16}
{"sequence": "GATAGAGGAC", "switch fluorescence ratio": 0.897}
{"sequence": "GATAGATGG", "switch fluorescence ratio": 0.98}
{"sequence": "GATAGATTGT", "switch fluorescence ratio": 1}
{"sequence": "GATAGCGCGA", "switch fluorescence ratio": 1.06}
{"sequence": "GATAGCTTAT", "switch fluorescence ratio": 1.02}
{"sequence": "GATAGCTTGA", "switch fluorescence ratio": 0.968}
{"sequence": "GATAGGAAAG", "switch fluorescence ratio": 0.978}
{"sequence": "GATAGTGACG", "switch fluorescence ratio": 0.944}
{"sequence": "GATATATTGA", "switch fluorescence ratio": 1.05}
{"sequence": "GATATCCTGT", "switch fluorescence ratio": 0.957}
{"sequence": "GATATCTCC", "switch fluorescence ratio": 1.08}
{"sequence": "GATATGAACT", "switch fluorescence ratio": 1.01}
{"sequence": "GATATGAATG", "switch fluorescence ratio": 0.998}
{"sequence": "GATATTATCG", "switch fluorescence ratio": 1.03}
{"sequence": "GATATTCGGA", "switch fluorescence ratio": 1.04}
{"sequence": "GATATTGATA", "switch fluorescence ratio": 1}
{"sequence": "GATCAACCGT", "switch fluorescence ratio": 0.963}
{"sequence": "GATCAAGCAG", "switch fluorescence ratio": 1.01}
{"sequence": "GATCAGACTA", "switch fluorescence ratio": 0.963}
{"sequence": "GATCAGACTG", "switch fluorescence ratio": 1.13}
{"sequence": "GATCAGGGCG", "switch fluorescence ratio": 0.988}
{"sequence": "GATCAGTATT", "switch fluorescence ratio": 0.995}
{"sequence": "GATCATAGAA", "switch fluorescence ratio": 1.01}
{"sequence": "GATCATTTCT", "switch fluorescence ratio": 0.961}
{"sequence": "GATCCCAGT", "switch fluorescence ratio": 1.05}
{"sequence": "GATCCCGACG", "switch fluorescence ratio": 1.13}
{"sequence": "GATCCCGGTA", "switch fluorescence ratio": 1.04}
{"sequence": "GATCCGATTA", "switch fluorescence ratio": 1.01}
{"sequence": "GATCCTTTTC", "switch fluorescence ratio": 1.11}
{"sequence": "GATCGAA", "switch fluorescence ratio": 0.995}
{"sequence": "GATCGACAGG", "switch fluorescence ratio": 0.976}
{"sequence": "GATCGATCG", "switch fluorescence ratio": 0.996}
{"sequence": "GATCGATGCC", "switch fluorescence ratio": 0.993}
{"sequence": "GATCGCATC", "switch fluorescence ratio": 2.14}
{"sequence": "GATCGGATCC", "switch fluorescence ratio": 0.979}
{"sequence": "GATCGGTCAT", "switch fluorescence ratio": 0.99}
{"sequence": "GATCGTACTG", "switch fluorescence ratio": 1.02}
{"sequence": "GATCGTCTGG", "switch fluorescence ratio": 0.974}
{"sequence": "GATCGTGAGC", "switch fluorescence ratio": 1.05}
{"sequence": "GATCTAGCAA", "switch fluorescence ratio": 1.48}
{"sequence": "GATCTCAGTG", "switch fluorescence ratio": 1.04}
{"sequence": "GATCTCATC", "switch fluorescence ratio": 0.992}
{"sequence": "GATCTCGTTA", "switch fluorescence ratio": 0.985}
{"sequence": "GATCTGACTT", "switch fluorescence ratio": 1.03}
{"sequence": "GATCTGAGAA", "switch fluorescence ratio": 0.986}
{"sequence": "GATCTTCGCG", "switch fluorescence ratio": 0.983}
{"sequence": "GATCTTTCCT", "switch fluorescence ratio": 1.12}
{"sequence": "GATGACATTT", "switch fluorescence ratio": 1.11}
{"sequence": "GATGACCGTC", "switch fluorescence ratio": 1.05}
{"sequence": "GATGACGATG", "switch fluorescence ratio": 1.07}
{"sequence": "GATGAGAAC", "switch fluorescence ratio": 0.987}
{"sequence": "GATGAGAAGA", "switch fluorescence ratio": 1.03}
{"sequence": "GATGAGGGAA", "switch fluorescence ratio": 1.01}
{"sequence": "GATGAGTATG", "switch fluorescence ratio": 0.976}
{"sequence": "GATGCATGGG", "switch fluorescence ratio": 1.01}
{"sequence": "GATGCGACTC", "switch fluorescence ratio": 1.22}
{"sequence": "GATGCGAGCG", "switch fluorescence ratio": 1.01}
{"sequence": "GATGCGCCAG", "switch fluorescence ratio": 0.972}
{"sequence": "GATGCTAATT", "switch fluorescence ratio": 1}
